In PubChem BioAssay AID1345083 (National Center for Advancing Translational Sciences (NCATS), 2018):
Out of some 94,000 compounds screened, about 6,200 (6.6%) were called active. Inconclusive results, whose numbers are uncertain, are shown with a selection of clear calls. Calls come from the whole dose curve; as a rule, active = well fitted inhibition curve with a large enough effect; inconclusive = small, poorly fitted or top-dose-only effect; inactive = flat fitted curve, though single readings scatter. Where the call is inconclusive, the potency comes from a doubtful curve fit.

test: Cytotoxic Profiling in HEK 293 Cell Line of Diverse Libraries Using Quantitative High-Throughput Screening; settings: HEK 293 viability, ATP luminescence (CellTiter-Glo), 48-72 h; series mostly up to 115 µM; note: nearly all actives have a fitted effect of over 60% in size
Procedure, shortened: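 250 HEK 293 cells/well; compound by pintool; incubated 48 or 72 hr at 37 degree Celsius; CellTiter-Glo added, 10 min RT, luminescence imaged.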
Potency is the fitted concentration of half-maximal effect; tags give direction and shape of the fitted curve.

For `COCCOc1cccc(Cn2cnc(-c3ccccc3)c2-c2cnc[nH]2)c1`, which Potency is on record?
The Potency was inconclusive: 35.5 µM [inhibitor, partial curve, poor fit].

With `COc1cccc(-c2ccc(CN3CCCC(NC(=O)c4ccccc4Cl)C3)cc2)c1` (configuration not stated) as the compound, how does the Potency read?
Its Potency is active: 20 µM.

Which Potency does the source give for `CO[C@@H]1C[C@H]2C(=O)Nc3ccc(-c4cccc(C(F)(F)F)c4)cc3C(=O)N2C1` here?
The Potency was inconclusive: 100 µM [inhibitor, partial curve, poor fit].

For `O=C(c1ccccc1)N1CCC2(CC1)Cc1ccccc1NC2=O`, which Potency is on record?
Its Potency is inconclusive: 44.7 µM [inhibitor, partial curve, poor fit].

Which Potency does the source give for `Cc1cccc2c1nc1n2[C@@H](CNCc2ccccc2)COC1` here?
The Potency was inconclusive: 39.8 µM [inhibitor, partial curve, poor fit].

For `Cc1nn2c(c1-c1cccnc1N1CCOCC1)N(C(=O)Cc1ccc(Cl)cc1)CCC2`, which Potency is on record?
The Potency was inconclusive: 50.1 µM [inhibitor, partial curve, poor fit].

Which Potency does the source give for `O=C(Nc1ccnn1C1CCN(Cc2ccc(-c3ccccc3)cc2)CC1)C1CC1` here?
Its Potency is inconclusive: 56.2 µM [inhibitor, partial curve, poor fit].

With `COc1ccccc1Nc1ccnc(N2CCN([S+](=O)([O-])c3cccc(C(F)(F)F)c3)CC2)n1` as the compound, how does the Potency read?
Its Potency is inconclusive: 39.8 µM [inhibitor, full curve, poor fit].

Which Potency does the source give for `CCn1ncc(N2CCC(NC(=O)COc3ccc(F)cc3)CC2)cc1=O` here?
Its Potency is inconclusive: 56.2 µM [inhibitor, partial curve, poor fit].

With `O=C1CC2(CCN(CC3CCNC3)C2)Nc2ccccc2N1` (configuration not stated) as the compound, how does the Potency read?
The Potency was “inactive”.

Which Potency does the source give for `Cc1cccc(C(=O)NC2CCCN(Cc3ccc(-c4cc(C)cc(C)c4)cc3)C2)c1` (configuration not stated) here?
The Potency was active: 39.8 µM.

Which Potency does the source give for `COc1ccc(CN2CC3(CCN(C(=O)Cc4cccc(OC)c4)CC3)C2=O)cc1` here?
Its Potency is inconclusive: 89.1 µM [inhibitor, single point].

For `FC(F)(F)c1cccc(-c2nccn3c(C4CN(Cc5ccc6cn[nH]c6c5)C4)ncc23)c1`, which Potency is on record?
The Potency was active: 44.7 µM.

For `COc1cc(F)ccc1-c1cc2c(ccn2C)c(C(=O)NCCc2cnc[nH]2)n1`, which Potency is on record?
Its Potency is inconclusive: 100 µM [inhibitor, partial curve, poor fit].

For `O[C@@H]1C[C@@H](c2nc(-c3ccc(F)cc3)no2)N(Cc2ccc(F)cc2)C1`, which Potency is on record?
The Potency was active: 100 µM.

For `CCc1ccc(N2CC(c3noc(-c4ccc(OC)cc4)n3)CC2=O)cc1` (configuration not stated), which Potency is on record?
Its Potency is inconclusive: 89.1 µM [inhibitor, single point].

With `COc1ccc2[nH]c3c(c2c1)CCN(C)C31CCN(C(=O)c2cccn2C)CC1` as the compound, how does the Potency read?
Its Potency is inconclusive: 17.8 µM [inhibitor, full curve].

Which Potency does the source give for `CCc1ccc(S(=O)(=O)N2CC(COC)C3(CCNCC3)C2)cc1` (configuration not stated) here?
The Potency was “inactive”.

With `CN(C)c1ccc(C(=O)NC2CCN(c3cc(-c4ccc(Cl)cc4)[nH]n3)C2)cc1` (configuration not stated) as the compound, how does the Potency read?
Its Potency is inconclusive: 44.7 µM [inhibitor, partial curve, poor fit].

Which Potency does the source give for `COc1ccc(CNC(=O)c2cccc(-c3ccc(OC)nn3)c2)cc1` here?
Its Potency is inconclusive: 56.2 µM [inhibitor, partial curve, poor fit].

With `COCCN1Cc2nc(-c3ccc(OC)c(F)c3)ccc2OCC1=O` as the compound, how does the Potency read?
Its Potency is “inactive”.

For `Cc1ccc2c(C)c(C(=O)N3CCCC3c3nc(C(C)C)no3)oc2c1C` (configuration not stated), which Potency is on record?
The Potency was inconclusive: 50.1 µM [inhibitor, partial curve, poor fit].

With `COc1ccc(C(C)NC(=O)c2cc3n(n2)CC(c2ccc(Cl)cc2)OC3)cc1OC` (configuration not stated) as the compound, how does the Potency read?
The Potency was inconclusive: 50.1 µM [inhibitor, partial curve, poor fit].

With `Cc1c(CN(C)Cc2cccc(C(=O)Nc3ccc(C#N)cc3)c2)cnn1C` as the compound, how does the Potency read?
Its Potency is active: 50.1 µM.

Which Potency does the source give for `COc1ccc(C(=O)N2CCN(CC3CC3)[C@@H]3CS(=O)(=O)C[C@@H]32)c(C)c1` here?
Its Potency is “inactive”.

For `CN(C(=O)c1ccccc1)C1CCCc2ccccc21` (configuration not stated), which Potency is on record?
Its Potency is inconclusive: 100 µM [inhibitor, partial curve].

With `COc1ccc(C(=O)NC2CCN(c3cc(-c4ccc(F)cc4)[nH]n3)CC2)c(C)c1` as the compound, how does the Potency read?
Its Potency is inconclusive: 50.1 µM [inhibitor, partial curve, poor fit].

With `COc1ccc2[nH]c3c(c2c1)CCNC31CCN(C(=O)c2ccccc2)CC1` as the compound, how does the Potency read?
The Potency was inconclusive: 35.5 µM [inhibitor, partial curve, poor fit].

With `COc1ccc2[nH]c(=O)c(CCC(=O)N(C)CCc3ccccc3)cc2c1` as the compound, how does the Potency read?
The Potency was inconclusive: 56.2 µM [inhibitor, partial curve, poor fit].

For `CC(C)c1ccc(S(=O)(=O)N2CCCC2Cc2noc(Cc3ccccc3)n2)cc1` (configuration not stated), which Potency is on record?
Its Potency is active: 25.1 µM.

Which Potency does the source give for `CN1CCC2(CCC1=O)CN(C(=O)c1ccc(Cn3cccn3)o1)CCN2C` (configuration not stated) here?
Its Potency is “inactive”.

With `NC(=O)c1cccc(-c2ncc3c(n2)OCCN(Cc2ccccc2)C3=O)c1` as the compound, how does the Potency read?
Its Potency is inconclusive: 112 µM [inhibitor, single point].

For `COc1ccc(-n2c(=O)c3c(n2Cc2ccccc2)CN(C(=O)C2CCCO2)CC3)cc1` (configuration not stated), which Potency is on record?
The Potency was “inactive”.

With `CCc1ccc(NC(=O)C2CCN(c3cc(C(F)(F)F)ncn3)CC2)cc1` as the compound, how does the Potency read?
Its Potency is inconclusive: 20 µM [inhibitor, full curve].

For `Cc1ccc(C(C)NC(=O)c2cc(COc3ccccc3)[nH]n2)c(C)c1` (configuration not stated), which Potency is on record?
Its Potency is inconclusive: 7.08 µM [inhibitor, full curve, poor fit].

With `COc1cccc(-c2noc(CC3CCN(C(=O)c4ccc(C)cc4)CC3)n2)c1` as the compound, how does the Potency read?
Its Potency is inconclusive: 17.8 µM [inhibitor, partial curve, poor fit].

With `O=C(NCc1ccco1)C1CC(c2ccccc2)CN(C(=O)Nc2ccc(Cl)cc2)C1` (configuration not stated) as the compound, how does the Potency read?
Its Potency is inconclusive: 56.2 µM [inhibitor, partial curve, poor fit].

For `COC(=O)CNC(=O)c1cc(-c2cccc(F)c2)nc2c1cnn2C`, which Potency is on record?
Its Potency is “inactive”.

For `CCOc1ccccc1C1NC(=O)N(CC(=O)Nc2ccc(C)cc2C)C2=C1C(=O)OC2` (configuration not stated), which Potency is on record?
The Potency was “inactive”.

With `Cc1noc(-c2ccco2)c1C(=O)NC(C)c1ccccc1` (configuration not stated) as the compound, how does the Potency read?
Its Potency is inconclusive: 79.4 µM [inhibitor, partial curve, poor fit].

Which Potency does the source give for `CCc1nc(CC)n2ccn(Cc3ccc(C#N)cc3)c(=O)c12` here?
The Potency was “inactive”.

Which Potency does the source give for `COc1ccc(Cl)cc1NC(=O)Cn1cccc1-c1nc(-c2ccccc2)no1` here?
Its Potency is inconclusive: 11.2 µM [inhibitor, full curve, poor fit].

With `Cn1cc(CC(=O)N2CCCc3ncc(C(=O)N4CCCC[C@@H]4Cc4ccccc4)cc32)c2ccccc21` as the compound, how does the Potency read?
Its Potency is active: 39.8 µM.

Which Potency does the source give for `COCC(=O)N[C@H]1CO[C@H]2[C@@H]1OC[C@@H]2Nc1nccc(C(C)(C)C)n1` here?
Its Potency is inconclusive: 126 µM [inhibitor, single point].

With `COc1ccc(NC(=O)c2cc(-c3ccc[nH]3)n[nH]2)c(OC)c1` as the compound, how does the Potency read?
The Potency was inconclusive: 44.7 µM [inhibitor, partial curve, poor fit].

With `C=CCOCC(O)CN1CCC(=O)N(Cc2ccccc2)Cc2cc(F)ccc21` (configuration not stated) as the compound, how does the Potency read?
The Potency was inconclusive: 79.4 µM [inhibitor, single point].

With `CCS(=O)(=O)N(C1CC1)C1CCOC2(CCN(C(=O)c3ccc(F)cc3)CC2)C1` (configuration not stated) as the compound, how does the Potency read?
The Potency was inconclusive: 89.1 µM [inhibitor, single point].

With `CC(C)c1nc2c(c(-c3ccc(O)cc3)n1)CCN(Cc1ccc(OC(F)(F)F)cc1)CC2` as the compound, how does the Potency read?
The Potency was inconclusive: 50.1 µM [inhibitor, partial curve, poor fit].

With `CC1CCCN(C(=O)c2cc(-c3ccc(C(F)(F)F)cc3)nc3c2cnn3C)C1` (configuration not stated) as the compound, how does the Potency read?
The Potency was active: 44.7 µM.

With `CC(C)C[C@@H]1N[C@H](C(=O)N2CCCC2)Cc2c[nH]c3cccc1c23` as the compound, how does the Potency read?
The Potency was inconclusive: 100 µM [inhibitor, partial curve, poor fit].

With `O=C(CN1C(=O)C(c2ccccc2)=NC12CCCC2)NCc1ccc(F)cc1` as the compound, how does the Potency read?
The Potency was active: 39.8 µM.

Which Potency does the source give for `O=[S+]([O-])(c1ccccc1)N1CC2(CCCCN2Cc2cccnc2)Cc2ccccc21` (configuration not stated) here?
The Potency was inconclusive: 56.2 µM [inhibitor, partial curve, poor fit].

For `O[C@H]1[C@H](NCc2ccc(OC(F)(F)F)cc2)[C@@H](c2cncnc2)C[C@H]1O`, which Potency is on record?
Its Potency is “inactive”.

Which Potency does the source give for `Cc1cc2cccc(-c3nc(C4CCOC4)nn3CC(=O)O)c2o1` (configuration not stated) here?
Its Potency is “inactive”.

Which Potency does the source give for `Cc1ccc(C(CC(=O)N2CCN(c3ccc([N+](=O)[O-])cc3)CC2)c2cn(C)c3ccccc23)cc1` (configuration not stated) here?
The Potency was inconclusive: 100 µM [inhibitor, single point].

Which Potency does the source give for `Cc1ccc(CN2C(=O)[C@@H]3C[C@@H](O)CN3C3(CN(Cc4cccc(OC(F)(F)F)c4)C3)C2=O)o1` here?
The Potency was inconclusive: 56.2 µM [inhibitor, partial curve, poor fit].

Which Potency does the source give for `COC(=O)[C@H](Cc1ccc(OC)cc1)NC(=O)[C@H]1CN(C(C)=O)CCN1C(=O)C1CCCCC1` here?
The Potency was “inactive”.

With `Cc1ccc(Nc2ccnc(N3CCCC3C(=O)NC3CCCC3)n2)cc1` (configuration not stated) as the compound, how does the Potency read?
Its Potency is inconclusive: 50.1 µM [inhibitor, partial curve, poor fit].

With `Cc1cccc(OCC(=O)N2CCC3(CC2)NC(=O)N(c2ccc(F)cc2)N3)c1` as the compound, how does the Potency read?
The Potency was inconclusive: 44.7 µM [inhibitor, partial curve].

With `CN(Cc1cccc(C(F)(F)F)c1)C(=O)c1cccc(Cl)c1` as the compound, how does the Potency read?
Its Potency is active: 100 µM.

With `COc1ccc(NC(=O)CCC2CCN(S(=O)(=O)c3ccccc3C)CC2)c(OC)c1` as the compound, how does the Potency read?
The Potency was inconclusive: 31.6 µM [inhibitor, full curve].

For `COc1ccccc1CC(=O)N1CCCc2ncc(C(=O)NCc3cccc(F)c3)cc21`, which Potency is on record?
Its Potency is inconclusive: 126 µM [inhibitor, single point].
